Laboratory results from publication PMC9911399, “Two distinct binding modes provide the RNA-binding protein RbFox with extraordinary sequence specificity”.
Where a chain is given by its changes, count along the chain named. The list shows a part of the results.

T1: RBFOX1 RRM RbFoxmut (Fox-RRM*) (Homo sapiens, UniProt Q9NWB1 109-208, R118D;E147R;N151S;E152T)
T1 sequence: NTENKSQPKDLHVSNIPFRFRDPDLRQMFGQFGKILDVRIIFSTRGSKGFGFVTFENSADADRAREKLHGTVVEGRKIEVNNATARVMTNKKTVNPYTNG

B1: AGUACAU (DNA:RNA)
RNA: GGGAGACCGGAAUUCAGAUUGUCCAGUACAUUUAAAUCCCGUCGUAGCCACCA
DNA 1: CAATCTGAATTCCGGTCTCCC
DNA 2: TGGTGGCTACGACGGGATT
B2: GGUAAAA (DNA:RNA)
RNA: B1 RNA with A25G, C29A, U31A
DNA 1: CAATCTGAATTCCGGTCTCCC
DNA 2: TGGTGGCTACGACGGGATT
B3: AAUUGGC (DNA:RNA)
RNA: B1 RNA with G26A, A28U, C29G, A30G, U31C
DNA 1: CAATCTGAATTCCGGTCTCCC
DNA 2: TGGTGGCTACGACGGGATT
B4: UUGCAUA (DNA:RNA)
RNA: GGGAGACCGGAAUUCAGAUUGUCCUUGCAUAUUAAAUCCCGUCGUAGCCACCA
DNA 1: CAATCTGAATTCCGGTCTCCC
DNA 2: TGGTGGCTACGACGGGATT
B5: UGCCAAU (DNA:RNA)
RNA: B1 RNA with A25U, U27C, A28C, C29A
DNA 1: CAATCTGAATTCCGGTCTCCC
DNA 2: TGGTGGCTACGACGGGATT
B6: GUGCUUC (DNA:RNA)
RNA: B4 RNA with U25G, A29U, A31C
DNA 1: CAATCTGAATTCCGGTCTCCC
DNA 2: TGGTGGCTACGACGGGATT
B7: GAAAUGG (DNA:RNA)
RNA: B1 RNA with A25G, G26A, U27A, C29U, A30G, U31G
DNA 1: CAATCTGAATTCCGGTCTCCC
DNA 2: TGGTGGCTACGACGGGATT
B8: UCAGGAU (DNA:RNA)
RNA: B1 RNA with A25U, G26C, U27A, A28G, C29G
DNA 1: CAATCTGAATTCCGGTCTCCC
DNA 2: TGGTGGCTACGACGGGATT
B9: UGGCAUU (DNA:RNA)
RNA: B4 RNA with U26G, A31U
DNA 1: CAATCTGAATTCCGGTCTCCC
DNA 2: TGGTGGCTACGACGGGATT

These binders were tested against T1, RBFOX1 RRM RbFoxmut (Fox-RRM*) (assay: EMSA; HiTS-Eq, 1 nM pool, 10 min; buffer printed only for the single-RNA assays: 10 mM Tris pH 7.5, 150 mM NaCl, 3.4 mM EDTA, 0.001% NP-40, 30 C). Settings: tags: His6 N-terminal (pET28a); label: 5' 32P.
Outline: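 A pool of RNA with 7 randomized nucleotides, 5′-radiolabelled and with DNA-annealed flanks, was equilibrated at 1 nM for 10 min in 50 µL with purified RbFox RRM, wild type or mutant, across increasing protein concentrations. Free RNA was separated by 8% native PAGE, excised, reverse-transcribed, barcoded by PCR and sequenced. Relative association constants were obtained from read-count changes of each RNA species versus the control reaction and normalised to the cognate motif.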

Q: How did the binding signal turn out when B1 was run?
A: 0.0854 KA relative to UGCAUGU

Q: B2 was tested. Which binding signal did it give?
A: 0.0612 KA relative to UGCAUGU

Q: With B3 as the binder, how does the binding signal read?
A: 0.114 KA relative to UGCAUGU

Q: B4 was tested. Which binding signal did it give?
A: 0.23 KA relative to UGCAUGU

Q: With B5 as the binder, how does the binding signal read?
A: 0.0611 KA relative to UGCAUGU

Q: With B6 as the binder, how does the binding signal read?
A: 0.15 KA relative to UGCAUGU

Q: B7 was tested. Which binding signal did it give?
A: 0.0639 KA relative to UGCAUGU

Q: Which binding signal does the source give for B8 here?
A: 0.104 KA relative to UGCAUGU

Q: With B9 as the binder, how does the binding signal read?
A: 0.1 KA relative to UGCAUGU
